Experimental data from a collection of fitness landscapes (doi:10.1126/science.1257360).
Some of the results follow.

B1: PhoQ; a variant is named by its letters at X, in order, P23837 (parent)
chain: MKKLLRLFFPLSLRVRFLLATAAVVLVLSLAYGMVALIGYSVSFDKTTFRLLRGESNLFYTLAKWENNKLHVELPENIDKQSPTMTLIYDENGQLLWAQRDVPWLMKMIQPDWLKSNGFHEIEADVNDTSLLLSGDHSIQQQLQEVREDDDDAEMTHSVAVNVYPATSRMPKLTIVVVDTIPVELKSSYMVWSWFIYVLSANLLLVIPLLWVAAWWSLRPIEALAKEVRELEEHNRELLNPATTRELTSLVRNLNRLLKSERERYDKYRTTLTDLTHSLKTPLXXLQXXLRSLRSEKMSVSDAEPVMLEQISRISQQIGYYLHRASMRGGTLLSRELHPVAPLLDNLTSALNKVYQRKGVNISLDISPEISFVGEQNDFVEVMGNVLDNACKYCLEFVEISARQTDEHLYIVVEDDGPGIPLSKREVIFDRGQRVDTLRPGQGVGLAVAREITEQYEGKIVAGESMLGGARMEVIFGRQHSAPKDE

Variants of: B1
Assay: enrichment ratio after two sorts for PhoP signalling (ratio (wild type AVST 3.29)); higher = more functional
Details: with PhoP (E. coli)

Variant | enrichment ratio
WSRR | ≤ 0.25
YFGA | ≤ 0.25
NQNV | ≤ 0.25
QVIY | ≤ 0.25
PGNV | ≤ 0.25
KFMD | ≤ 0.25
AVLW | ≤ 0.25
IGRS | ≤ 0.25
THRP | ≤ 0.25
KLSG | ≤ 0.25
KKLK | ≤ 0.25
IAEH | ≤ 0.25
NTNK | ≤ 0.25
NYLN | ≤ 0.25
LMEF | ≤ 0.25
LATC | ≤ 0.25
KEFG | ≤ 0.25
EGKR | ≤ 0.25
RATA | ≤ 0.25
QQGH | 6
EHGM | ≤ 0.25
CRSP | ≤ 0.25
NSVI | ≤ 0.25
WTFG | ≤ 0.25
FGWS | ≤ 0.25
EERD | ≤ 0.25

Variant | enrichment ratio
TCWG | ≤ 0.25
DPKT | ≤ 0.25
QVYP | ≤ 0.25
YGLQ | 4.74
RQHW | ≤ 0.25
PFIF | ≤ 0.25
MCHH | ≤ 0.25
SMEF | ≤ 0.25
REAG | ≤ 0.25
RYKI | ≤ 0.25
LAFG | ≤ 0.25
DAWG | ≤ 0.25
AVRR | ≤ 0.25
QSYV | 14.9
NMQF | ≤ 0.25
LTEI | ≤ 0.25
PLAK | ≤ 0.25
ALMC | ≤ 0.25
AMDH | ≤ 0.25
HKDE | ≤ 0.25
NPST | ≤ 0.25
WGKH | ≤ 0.25
QITR | ≤ 0.25
PAWY | ≤ 0.25
GYRE | ≤ 0.25
THHK | ≤ 0.25

Variant | enrichment ratio
WYVV | ≤ 0.25
TNEC | ≤ 0.25
PNWE | ≤ 0.25
HVCF | ≤ 0.25
TKKM | ≤ 0.25
WHYE | ≤ 0.25
FKKS | ≤ 0.25
EHQK | ≤ 0.25
IEPV | ≤ 0.25
YPWI | ≤ 0.25
ELDA | ≤ 0.25
PTSN | ≤ 0.25
MHCC | ≤ 0.25
QMAF | 0.276
VDNI | ≤ 0.25
AYTG | ≤ 0.25
DDTN | ≤ 0.25
GFVQ | ≤ 0.25
HWHK | ≤ 0.25
GDTP | ≤ 0.25
MVCG | ≤ 0.25
VGHL | ≤ 0.25
LTDL | ≤ 0.25
WSFK | ≤ 0.25
MQIL | 1.4
QSTG | ≤ 0.25

Variant | enrichment ratio
RWLI | ≤ 0.25
VNPH | ≤ 0.25
KQFF | ≤ 0.25
ECRK | ≤ 0.25
DREL | ≤ 0.25
WFVQ | ≤ 0.25
NWSN | ≤ 0.25
QYAD | ≤ 0.25
EVHK | ≤ 0.25
TSSQ | 11.8
GLWR | ≤ 0.25
PWSC | ≤ 0.25
ERAE | ≤ 0.25
WFGV | ≤ 0.25
FYDV | ≤ 0.25
VRWQ | ≤ 0.25
EFSW | ≤ 0.25
RPSF | ≤ 0.25
MDWC | ≤ 0.25
SFRF | ≤ 0.25
IQWT | ≤ 0.25
AGTE | ≤ 0.25
GPQV | ≤ 0.25
QNIR | ≤ 0.25
LFTN | ≤ 0.25
RSNC | ≤ 0.25

Variant | enrichment ratio
QGPT | ≤ 0.25
GHID | ≤ 0.25
FHSP | ≤ 0.25
DAAM | ≤ 0.25
RRQC | ≤ 0.25
MKYY | ≤ 0.25
ETRH | ≤ 0.25
ANMY | ≤ 0.25
HFWQ | ≤ 0.25
DDIC | ≤ 0.25
DHEA | ≤ 0.25
DTHS | ≤ 0.25
NVMP | ≤ 0.25
DVGT | ≤ 0.25
RAPS | ≤ 0.25
WKTM | ≤ 0.25
RDQP | ≤ 0.25
LKVS | ≤ 0.25
WQKW | ≤ 0.25
FYTR | ≤ 0.25
FFYQ | ≤ 0.25
VLTP | ≤ 0.25
PDAE | ≤ 0.25
ESDR | ≤ 0.25
VDMD | ≤ 0.25
FYKK | ≤ 0.25

Variant | enrichment ratio
LAWI | ≤ 0.25
YDPP | ≤ 0.25
YWER | ≤ 0.25
RRPI | ≤ 0.25
PGAS | ≤ 0.25
GPND | ≤ 0.25
EEAH | ≤ 0.25
VQNE | ≤ 0.25
KCTG | ≤ 0.25
QYSK | ≤ 0.25
VWEN | ≤ 0.25
NTYH | ≤ 0.25
NKKR | ≤ 0.25
NFPM | ≤ 0.25
TDEW | ≤ 0.25
YCMC | ≤ 0.25
QFTG | 0.485
PDVH | ≤ 0.25
FMKQ | ≤ 0.25
YYFP | ≤ 0.25
RTHD | ≤ 0.25
FLLI | 0.778
GWEY | ≤ 0.25
